# The supplement of paper PMC8728848
# The list shows a part of the results.
# B1: ClecSol-Fc (Cryptosporidium parvum) (protein)
# chain: CPEGWISNGEKTRCFKLVTFDRPRTFSHGFKACNDLGGTEVETRRRNGSKETNEYPVTLASVYKLSDEEAIRRTLVEQGDIHKTANGCFVGLRKYAFFRYPPGWYWIDSGSPVSVRDSEINWTSSYNASWLLRFKFPFEKCGFFDIGGLGRRPCWLIDSELSCAVCGTVAYDSGGLNPNKYSELIKQTDEIISKEPKLDLPGYNNLNCTDAWENNLSVGLCQNVSNILDSAWSSYQSSLNFPSINFNWKEDSTNEGGDQVYHNSYLDLPRYKQKKTFYWDQDPGTIPALSDEMKLIGLSAQPTYHPLDRSSSGSFESDSTESGRANEERNDTLEEMIYKQSSDSIEDILVPVTKPIFSDYSSIGRNSGVEEVYSSNVSTISSKGVVFPNTTTSSDNDFTKNNPANSSKHTSTSTTTNTTTTTTRTTTTTTTTTTTTTTTTTTTTETTTTKKSTTATKNTTTT
# How the values were obtained:
# Assay in all cases: glycan array binding signal (z-score within array); higher = stronger binding
# Conditions in all cases: glycan notation: IUPAC condensed, linker removed
# [1] = molecular target: Neu5Ac(a2-3)Gal(b1-3)GlcNAc6S
# Outline: (§1)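 From the Consortium for Functional Glycomics database, 3228 arrays were curated, keeping only those whose protein sequence was available. Binding is given as a within-array Z-score averaged across arrays sharing a protein sequence and across linkers. Negative Z-scores can be read as non-binding.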
# [2] = molecular target: Neu5Ac(a2-3)Gal(b1-3)[Fuc(a1-4)]GlcNAc
# Outline: as §1
# [3] = molecular target: Neu5Ac(a2-3)Gal(b1-3)[Fuc(a1-4)]GlcNAc(b1-3)Gal(b1-3)[Fuc(a1-4)]GlcNAc
# Outline: as §1
# [4] = molecular target: Neu5Ac(a2-3)Gal(b1-3)[Fuc(a1-4)]GlcNAc(b1-3)Gal(b1-4)[Fuc(a1-3)]GlcNAc
# Outline: as §1
# [5] = molecular target: Neu5Ac(a2-3)Gal(b1-3)[GlcNAc(b1-6)]GalNAc
# Outline: as §1
# [6] = molecular target: Neu5Ac(a2-3)Gal(b1-3)[Neu5Ac(a2-6)]GalNAc
# Outline: as §1
# [7] = molecular target: Neu5Ac(a2-3)Gal(b1-3)[Neu5Ac(a2-6)]GlcNAc(b1-3)[Fuc(a1-3)[Gal(b1-4)]GlcNAc(b1-6)]Gal(b1-4)Glc
# Outline: as §1
# [8] = molecular target: Neu5Ac(a2-3)Gal(b1-3)]Neu5Ac(a2-3)Gal(b1-4)]GlcNAc
# Outline: as §1
# Neu5Ac(a2-3)Gal(b1-4)Glc = molecular target: Neu5Ac(a2-3)Gal(b1-4)Glc
# Outline: as §1
# [9] = molecular target: Neu5Ac(a2-3)Gal(b1-4)GlcNAc
# Outline: as §1
# [10] = molecular target: Neu5Ac(a2-3)Gal(b1-4)GlcNAc(b1-2)Man
# Outline: as §1
# [11] = molecular target: Neu5Ac(a2-3)Gal(b1-4)GlcNAc(b1-2)Man(a1-3)[GlcNAc(b1-4)][Neu5Ac(a2-3)Gal(b1-4)GlcNAc(b1-2)Man(a1-6)]Man(b1-4)GlcNAc(b1-4)GlcNAc
# Outline: as §1
# [12] = molecular target: Neu5Ac(a2-3)Gal(b1-4)GlcNAc(b1-2)Man(a1-3)[Neu5Ac(a2-3)Gal(b1-4)GlcNAc(b1-2)Man(a1-6)]Man(b1-4)GlcNAc(b1-4)GlcNAc
# Outline: as §1
# [13] = molecular target: Neu5Ac(a2-3)Gal(b1-4)GlcNAc(b1-2)Man(a1-3)[Neu5Ac(a2-3)Gal(b1-4)GlcNAc(b1-2)Man(a1-6)]Man(b1-4)GlcNAc(b1-4)[Fuc(a1-6)]GlcNAc
# Outline: as §1
# [14] = molecular target: Neu5Ac(a2-3)Gal(b1-4)GlcNAc(b1-2)Man(a1-3)[Neu5Ac(a2-6)Gal(b1-4)GlcNAc(b1-2)Man(a1-6)]Man(b1-4)GlcNAc(b1-4)GlcNAc
# Outline: as §1
# [15] = molecular target: Neu5Ac(a2-3)Gal(b1-4)GlcNAc(b1-2)[Neu5Ac(a2-3)Gal(b1-4)GlcNAc(b1-4)]Man(a1-3)[GlcNAc(b1-4)][Neu5Ac(a2-3)Gal(b1-4)GlcNAc(b1-2)[Neu5Ac(a2-3)Gal(b1-4)GlcNAc(b1-6)]Man(a1-6)]Man(b1-4)GlcNAc(b1-4)GlcNAc
# Outline: as §1
# [16] = molecular target: Neu5Ac(a2-3)Gal(b1-4)GlcNAc(b1-2)[Neu5Ac(a2-3)Gal(b1-4)GlcNAc(b1-4)]Man(a1-3)[GlcNAc(b1-4)][Neu5Ac(a2-3)Gal(b1-4)GlcNAc(b1-4)Man(a1-6)]Man(b1-4)GlcNAc(b1-4)GlcNAc
# Outline: as §1
# [17] = molecular target: Neu5Ac(a2-3)Gal(b1-4)GlcNAc(b1-2)[Neu5Ac(a2-3)Gal(b1-4)GlcNAc(b1-6)]Man(a1-6)[Neu5Ac(a2-3)Gal(b1-4)GlcNAc(b1-2)Man(a1-3)][GlcNAc(b1-4)]Man(b1-4)GlcNAc(b1-4)GlcNAc
# Outline: as §1
# [18] = molecular target: Neu5Ac(a2-3)Gal(b1-4)GlcNAc(b1-3)Gal
# Outline: as §1
# [19] = molecular target: Neu5Ac(a2-3)Gal(b1-4)GlcNAc(b1-3)Gal(b1-3)GlcNAc
# Outline: as §1
# [20] = molecular target: Neu5Ac(a2-3)Gal(b1-4)GlcNAc(b1-3)Gal(b1-4)GlcNAc
# Outline: as §1
# [21] = molecular target: Neu5Ac(a2-3)Gal(b1-4)GlcNAc(b1-3)Gal(b1-4)GlcNAc(b1-2)Man(a1-3)[Neu5Ac(a2-3)Gal(b1-4)GlcNAc(b1-3)Gal(b1-4)GlcNAc(b1-2)Man(a1-6)]Man(b1-4)GlcNAc(b1-4)GlcNAc
# Outline: as §1
# [22] = molecular target: Neu5Ac(a2-3)Gal(b1-4)GlcNAc(b1-3)Gal(b1-4)GlcNAc(b1-3)Gal(b1-4)GlcNAc
# Outline: as §1
# [23] = molecular target: Neu5Ac(a2-3)Gal(b1-4)GlcNAc(b1-3)Gal(b1-4)GlcNAc(b1-3)Gal(b1-4)GlcNAc(b1-2)Man(a1-3)[Neu5Ac(a2-3)Gal(b1-4)GlcNAc(b1-3)Gal(b1-4)GlcNAc(b1-3)Gal(b1-4)GlcNAc(b1-2)Man(a1-6)]GalNAc
# Outline: as §1
# [24] = molecular target: Neu5Ac(a2-3)Gal(b1-4)GlcNAc(b1-3)Gal(b1-4)GlcNAc(b1-3)GalNAc
# Outline: as §1
# [25] = molecular target: Neu5Ac(a2-3)Gal(b1-4)GlcNAc(b1-3)Gal(b1-4)GlcNAc(b1-3)[Neu5Ac(a2-3)Gal(b1-4)GlcNAc(b1-3)Gal(b1-4)GlcNAc(b1-6)]GalNAc
# Outline: as §1
# [26] = molecular target: Neu5Ac(a2-3)Gal(b1-4)GlcNAc(b1-3)Gal(b1-4)GlcNAc(b1-6)[Gal(b1-3)]GalNAc
# Outline: as §1
# [27] = molecular target: Neu5Ac(a2-3)Gal(b1-4)GlcNAc(b1-3)Gal(b1-4)[Fuc(a1-3)]GlcNAc
# Outline: as §1
# [28] = molecular target: Neu5Ac(a2-3)Gal(b1-4)GlcNAc(b1-3)GalNAc
# Outline: as §1
# [29] = molecular target: Neu5Ac(a2-3)Gal(b1-4)GlcNAc(b1-3)[Neu5Ac(a2-3)Gal(b1-4)GlcNAc(b1-6)]GalNAc
# Outline: as §1
binder,measurement,setting,value
B1,glycan array binding signal (z-score),[1],-0.037
same,glycan array binding signal (z-score),[2],-0.003
same,glycan array binding signal (z-score),[3],0.221
same,glycan array binding signal (z-score),[4],-0.075
same,glycan array binding signal (z-score),[5],-0.17
same,glycan array binding signal (z-score),[6],-0.126
same,glycan array binding signal (z-score),[7],-0.212
same,glycan array binding signal (z-score),[8],0.116
same,glycan array binding signal (z-score),Neu5Ac(a2-3)Gal(b1-4)Glc,-0.051
same,glycan array binding signal (z-score),[9],0.072
same,glycan array binding signal (z-score),[10],0.228
same,glycan array binding signal (z-score),[11],-0.175
same,glycan array binding signal (z-score),[12],-0.103
same,glycan array binding signal (z-score),[13],-0.084
same,glycan array binding signal (z-score),[14],0.029
same,glycan array binding signal (z-score),[15],-0.075
same,glycan array binding signal (z-score),[16],0.111
same,glycan array binding signal (z-score),[17],-0.149
same,glycan array binding signal (z-score),[18],0.259
same,glycan array binding signal (z-score),[19],-0.202
same,glycan array binding signal (z-score),[20],-0.059
same,glycan array binding signal (z-score),[21],-0.191
same,glycan array binding signal (z-score),[22],-0.115
same,glycan array binding signal (z-score),[23],0.188
same,glycan array binding signal (z-score),[24],-0.205
same,glycan array binding signal (z-score),[25],-0.112
same,glycan array binding signal (z-score),[26],0.011
same,glycan array binding signal (z-score),[27],-0.012
same,glycan array binding signal (z-score),[28],-0.229
same,glycan array binding signal (z-score),[29],-0.157
